# Laboratory results taken from the supplement of paper PMC3334620.
# The full ranking holds about 33,000 sequences; the median of “E-score (-0.5 to 0.5)” is about -0.013, and the highest 2% start at about 0.3. Some of the results follow.
# Molecular target: T1, Msn1 (UniProt P22148)
# T1 sequence: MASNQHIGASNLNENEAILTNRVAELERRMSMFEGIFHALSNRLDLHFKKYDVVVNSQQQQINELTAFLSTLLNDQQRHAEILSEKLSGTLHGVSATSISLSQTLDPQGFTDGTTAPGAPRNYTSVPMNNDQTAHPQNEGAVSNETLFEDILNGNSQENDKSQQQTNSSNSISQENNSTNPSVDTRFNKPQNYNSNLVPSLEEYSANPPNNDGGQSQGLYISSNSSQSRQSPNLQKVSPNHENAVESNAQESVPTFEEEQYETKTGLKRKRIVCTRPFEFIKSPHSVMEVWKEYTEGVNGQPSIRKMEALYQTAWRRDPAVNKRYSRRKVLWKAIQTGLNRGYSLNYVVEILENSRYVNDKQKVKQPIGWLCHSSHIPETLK
# Assay: PBM E-score (8-mer binding enrichment) (E-score (-0.5 to 0.5)); higher = stronger / more preferred TF binding; most listed sequences are background and not binding sites
# Details: protein concentration: 200 nM; construct: GST-full length
# Method in brief: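 Yeast transcription factors carrying a GST tag, as full-length proteins or DNA-binding domains, were produced by PURExpress in vitro transcription/translation. About 100-200 nM protein was applied to universal all-10-mer Agilent arrays, double-stranded by primer extension on fresh or once-stripped slides. Bound protein was detected with fluorescent anti-GST, and scans were normalised with masliner. The Universal PBM Analysis Suite gave each ungapped eight-base word, pooled with its reverse complement, an E-score, a modified Wilcoxon-Mann-Whitney statistic.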
row,Sequence,PBM E-score
1,GGCATATA,0.219
2,AGGTGGGA,-0.233
3,AATAAACA,0.188
4,ACGTTGTG,0.00695
5,CGGCGACA,0.0783
6,AATGGGAG,-0.106
7,GACTCCGA,-0.0831
8,GAGAAATC,0.19
9,ACGTCTCC,-0.128
10,CCAAACGC,-0.0457
11,TGGGTAAA,0.113
12,TAAAAACA,0.144
13,ACCCGATG,0.112
14,GCACAGCC,-0.194
15,ATCTTTGA,-0.0173
16,GCCGACAA,0.117
17,AAGCCCGT,-0.386
18,AAGACTAG,-0.194
19,GTCTTGAA,0.2
20,CTTCAGCA,-0.169
21,CGGATTCC,-0.0354
22,AGGTAACC,-0.229
23,ACACCAAA,0.226
24,GCTGGAAC,-0.316
25,GCACGTGC,0.114

row,Sequence,PBM E-score
1,AAAACAAA,0.215
2,CGTCACGC,0.011
3,CCCGATCC,-0.209
4,GCATTTAC,0.0372
5,AATAGTTG,0.107
6,GAGGGCGA,-0.355
7,CTGATTCC,-0.166
8,CAGAGGTC,-0.121
9,CACGCCAC,-0.127
10,AAGCACGA,-0.0347
11,GGGAAAAA,0.185
12,AGCCCACC,-0.321
13,ACATTGAT,0.19
14,AGTTGCCC,0.0155
15,AGGAAGTC,-0.0428
16,AAGGCAAG,-0.145
17,GCCCGACC,-0.247
18,AGTAATGA,0.0598
19,CGCGCCTC,-0.0849
20,AGTAGATA,0.194
21,AAGTCAGT,0.112
22,CGAGGAGA,-0.141
23,ACAGCGCG,0.0332
24,ATCTGTGC,-0.047
25,AGAGTGAA,0.138

row,Sequence,PBM E-score
1,AGAGGCGC,-0.17
2,ACGACCAC,-0.172
3,GGCTAGAA,0.0779
4,ACGCCCCT,-0.243
5,ACGTTCCT,-0.0236
6,CTAACAAG,-0.00205
7,GGAATACA,0.136
8,ACCAAGAG,-0.0524
9,CGGCGCCC,-0.167
10,ATCGGGGA,0.0821
11,AGCGGATA,-0.0754
12,CGGCTCTC,-0.179
13,GAGCTCAA,0.097
14,CTTTGGGA,0.00966
15,AGGATCCT,-0.162
16,CTGTACAG,0.0843
17,CCCCACAA,0.0582
18,ATGCTTGC,-0.0773
19,ACATTACG,0.221
20,CGAAGCTA,0.0736
21,GCAACAAA,0.165
22,CGCCTCTA,-0.0484
23,CCGACAGA,0.0804
24,GCGCTTCA,-0.0683
25,AAGACCAA,-0.139

row,Sequence,PBM E-score
1,AAGGGGCG,-0.231
2,GAGACTGC,-0.0722
3,TCGTGTCA,0.138
4,ACTGATTA,0.0723
5,CCCTGCGC,-0.169
6,AAACTATG,-0.0995
7,ACGTTAAA,0.15
8,CCACGTAG,-0.299
9,CGTTAAAG,-0.00103
10,CGTGCTTC,-0.0761
11,AACTTATC,0.0748
12,ATCACCCC,-0.116
13,AGCCCAGA,-0.108
14,CTAAAAAC,0.0761
15,CCTAGCCG,-0.114
16,GCGCGTCC,0.161
17,GAGGTTCA,0.0372
18,ACAACAGA,0.0792
19,TACCCGAA,-0.0563
20,CGCACCTA,-0.249
21,ACATATCG,0.231
22,CGTACTTC,0.006
23,ATAGGCAG,0.0587
24,AAACCGAT,-0.0421
25,CAGCGGCC,-0.146

row,Sequence,PBM E-score
1,GCGGCTCA,-0.112
2,ATGTGGTG,-0.111
3,CGTTATAG,0.0295
4,CATTTCTC,0.165
5,TGAGAAAA,0.00862
6,GCACTGCC,-0.0902
7,AACCCCCA,-0.304
8,AAGTGCGG,0.0388
9,CCATTGTC,0.311
10,GCCAGTAA,-0.185
11,ACATGTTC,0.147
12,ACAATAGA,0.243
13,ATTGGGGG,-0.304
14,AGCCGTAG,-0.125
15,GGCCGGCA,0.142
16,TGACCACA,-0.0111
17,CGATAGAG,-0.0437
18,CGCACTCA,0.00606
19,ATTCCAAA,0.155
20,AAACATAG,-0.131
21,ACTTCTAG,-0.344
22,CTCCCACC,-0.384
23,GAGGCCGA,-0.142
24,CGTCAGGC,-0.117
25,GATGCCAA,-0.118

row,Sequence,PBM E-score
1,CGTGCTCA,-0.00047
2,CCACGACG,-0.154
3,GCGTACGA,-0.0483
4,TAATAGGA,0.139
5,ACTTTATG,0.161
6,CGTCTAGA,-0.0164
7,AATTGTGC,0.0159
8,CGGCCGCC,-0.155
9,CCTATCGA,0.0692
10,ATAAGTAT,0.0424
11,CCGCTCCC,-0.267
12,AGACTCAC,-0.068
13,ATATCTAG,-0.0675
14,CTTCGTTA,-0.0607
15,CAGGTTAG,-0.221
16,TCTTTAAA,0.234
17,AGGGTTTA,0.111
18,ATTGAGGG,-0.237
19,GTAGCGAA,-0.0704
20,CAATTATC,0.164
21,CAGCGCCA,-0.128
22,ATTCGCCG,0.154
23,CGACACCA,0.00984
24,CGCGTAAG,0.0374
25,GAACGCCC,-0.195

row,Sequence,PBM E-score
1,ACTGGAAG,-0.126
2,GCCTAAGC,-0.136
3,AATTACGT,0.0895
4,ATGTGATA,0.0977
5,AATTTGGC,0.00267
6,ACGAGCGC,-0.156
7,ATCCCCCA,-0.369
8,CAGCTCTC,-0.257
9,CAGCAGTA,-0.117
10,GCATTACC,-0.227
11,AAATCTTG,0.0194
12,TAGGACTA,0.257
13,AAGACGGG,0.0296
14,GACCGTAA,-0.0337
15,AGACGGAC,0.219
16,TAGCATAA,-0.12
17,CACAATAG,0.0552
18,GGCCGGAA,-0.174
19,AACGTCGA,0.121
20,CAAACGTG,0.0734
21,ACATATGG,0.262
22,GGCGCAGA,0.0291
